# In the supplement of paper PMC3334620:
# Over roughly 33,000 sequences, “E-score (-0.5 to 0.5)” has its median near -0.021; the highest 2% begin near 0.32. This is one part of the list.
# Biological target: T1, Zap1 (UniProt P47043)
# T1 sequence: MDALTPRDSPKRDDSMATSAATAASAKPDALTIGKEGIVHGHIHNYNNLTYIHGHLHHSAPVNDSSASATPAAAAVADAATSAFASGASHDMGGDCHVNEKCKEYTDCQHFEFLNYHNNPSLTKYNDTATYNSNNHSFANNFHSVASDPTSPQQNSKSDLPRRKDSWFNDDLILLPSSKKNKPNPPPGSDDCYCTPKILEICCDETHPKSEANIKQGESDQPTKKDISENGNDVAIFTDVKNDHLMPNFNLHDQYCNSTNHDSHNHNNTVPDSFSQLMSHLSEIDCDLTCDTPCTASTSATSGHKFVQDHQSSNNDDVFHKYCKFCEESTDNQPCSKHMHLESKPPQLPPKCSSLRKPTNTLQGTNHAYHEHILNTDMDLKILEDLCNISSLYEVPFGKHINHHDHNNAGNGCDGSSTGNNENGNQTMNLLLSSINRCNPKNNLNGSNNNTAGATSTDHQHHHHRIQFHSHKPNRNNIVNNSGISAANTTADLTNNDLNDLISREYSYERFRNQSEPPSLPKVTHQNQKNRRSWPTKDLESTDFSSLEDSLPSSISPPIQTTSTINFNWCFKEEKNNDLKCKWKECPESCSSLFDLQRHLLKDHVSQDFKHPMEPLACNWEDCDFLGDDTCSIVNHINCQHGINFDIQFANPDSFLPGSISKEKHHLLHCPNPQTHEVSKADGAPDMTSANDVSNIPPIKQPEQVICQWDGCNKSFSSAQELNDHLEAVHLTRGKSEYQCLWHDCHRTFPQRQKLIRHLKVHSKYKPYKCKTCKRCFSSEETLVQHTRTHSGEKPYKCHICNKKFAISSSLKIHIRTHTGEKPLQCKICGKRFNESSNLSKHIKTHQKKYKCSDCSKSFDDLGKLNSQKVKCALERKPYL
# Assay: PBM E-score (8-mer binding enrichment) (E-score (-0.5 to 0.5)); higher = stronger / more preferred TF binding; most listed sequences are background and not binding sites
# Conditions: protein concentration: 200 nM; construct: GST-full length
# Method: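 Universal 'all 10-mer' protein binding microarrays (Agilent AMADID 015681) probed with GST-tagged S. cerevisiae TFs (full-length or DBD) made by in vitro transcription/translation (PURExpress), about 100-200 nM. Bound TF was detected with fluorescent anti-GST. Each ungapped 8-mer (which stands for itself and its reverse complement) is scored by the PBM enrichment score (E-score), a modified Wilcoxon-Mann-Whitney statistic from -0.5 to +0.5, computed with the Universal PBM Analysis Suite. Scale: above 0.35 generally sequence-specific binding.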
row,Sequence,PBM E-score
1,CCCTGGTA,0.185
2,GAAAGGCA,-0.107
3,CAACCTAA,0.203
4,GGAGTGGA,-0.414
5,CTAGCGTC,-0.153
6,ACTGTATA,0.206
7,ATGAACGG,-0.164
8,AGTGATCG,-0.0957
9,ACCTCAAC,0.21
10,CCATCAGA,-0.172
11,CAAAGAAC,0.231
12,GTATAGAA,0.121
13,AGGATCAC,0.0829
14,CCCTCAAG,0.135
15,CTGACGTA,-0.242
16,CTCGGTGA,-0.0979
17,ATGATAGA,0.0317
18,GAGAGATA,-0.222
19,CCTACAAG,-0.0213
20,CGACTCTA,-0.195
21,ACCAAACA,0.275
22,CCCTGACC,0.275
23,CACCACAG,0.112
24,ACAGCCCC,-0.0636
25,AAGGCTTC,-0.29

row,Sequence,PBM E-score
1,CTCCCGAC,-0.0105
2,GCGCAGAC,0.0155
3,CCAGAAGA,-0.0769
4,CCTTTCAA,0.0123
5,ACGCGATG,-0.0639
6,CGGTTCAG,-0.152
7,CAGAAATG,0.0534
8,GGGTGAGA,-0.0816
9,ACCATTTC,0.126
10,CCCGTAAG,0.259
11,AACCCATC,0.248
12,ATGGACAT,0.108
13,GTAGTGTA,0.0188
14,CCTCTTTA,-0.0666
15,ATTATTGG,0.049
16,CCTAGATC,-0.211
17,GCTAAAGC,-0.287
18,ACTCTGCA,0.0815
19,GCGAGCCA,-0.109
20,CAGATCGG,-0.238
21,CGTACAGC,-0.17
22,ATCACCTG,0.073
23,GACCCAAA,0.299
24,TAAGTGAA,0.0879
25,CGCCACCC,0.0637

row,Sequence,PBM E-score
1,GGCAAGAC,-0.161
2,GTTATTCA,0.238
3,ATGCACTA,-0.0376
4,GCCCTCCC,-0.27
5,AGCGATAT,0.0755
6,CAAAATAC,0.175
7,CCAATTGA,-0.032
8,GATCGACC,0.0168
9,ACCCGACC,0.233
10,TAGGGCAA,0.0414
11,CAGTCATA,0.00081
12,CCGCTTGA,-0.0656
13,AACAGGCG,-0.32
14,GCGTGGCA,-0.238
15,ATAATGTA,-0.00663
16,CAGTGTTA,0.116
17,CAGCTATG,-0.151
18,CATGGACA,0.0186
19,CATGTCCA,0.0896
20,GTCGCGCA,-0.0617
21,CTACCCAA,0.265
22,CTACAAAG,0.233
23,AGTGACAG,0.00986
24,GATCAGAA,-0.106
25,ATACCCCG,0.175

row,Sequence,PBM E-score
1,CATTCAGC,-0.131
2,AAGGGCAA,-0.13
3,GAAGGACA,-0.0101
4,ACAGCGTA,-0.0395
5,ACTCTACG,-0.188
6,GGCCTGAA,-0.22
7,ACTTGTCG,-0.0781
8,CAATCAAC,0.091
9,GGAAACCA,0.0255
10,AAATGTAA,0.106
11,AGTTTCTC,-0.19
12,AATTAGCT,0.0533
13,GCCCCCCC,-0.27
14,CTGCGGAA,-0.109
15,AGCGCGAA,0.0923
16,GATATTCA,-0.112
17,TCCTTGAA,0.158
18,AGGGTTCG,0.0919
19,TATTGACA,-0.0592
20,CCAGGTCC,0.0708
21,ACGGATAT,0.187
22,CTCTCACC,0.0392
23,CGACATCG,-0.203
24,GTTATCTA,0.171
25,ACAGCCCT,-0.154

row,Sequence,PBM E-score
1,AACACCGT,-0.0994
2,GACCAGCA,-0.00619
3,CCCTCTTA,0.206
4,AAGGCTTG,-0.209
5,CAACGTAC,-0.00853
6,CGATAGCG,-0.123
7,ACTAAATA,0.229
8,CCAGCGGA,-0.21
9,ACGCATGC,0.0223
10,GTCGCGGA,0.089
11,CTATAATA,0.144
12,AGGGGTAT,0.258
13,CAAGCATA,-0.0322
14,CACATCCA,-0.0646
15,GCATAGGC,-0.325
16,AACATAGC,-0.116
17,ACAACACT,0.21
18,CCAAATAC,0.0363
19,ACGCCGTA,-0.166
20,GGATGTTA,0.0507
21,CTTGCAGA,-0.123
22,CTCGGAAA,0.0791
23,ATACAGAA,0.0186
24,CATGGCGG,-0.129
25,CCGTGGCG,-0.134

row,Sequence,PBM E-score
1,CCTTAAAG,0.276
2,AGCTGGTG,-0.107
3,CATTTAGG,-0.0899
4,GCTTCGGA,-0.106
5,CAAGTTCA,-0.0629
6,GATTATGA,0.0655
7,CTGCAGAA,-0.103
8,CGCGGCTC,0.0661
9,CCGTTCGA,0.0486
10,CAGATGCA,-0.312
11,AACCACGA,0.242
12,GAATTGTA,0.0899
13,CTTGCAAA,-0.0664
14,AGAAACAA,0.248
15,ACATTAAG,0.209
16,CCCGCCGA,-0.0979
17,ACCGGTTA,0.372
18,GTTGGGTA,0.237
19,CCCAAGGC,-0.0489
20,GGAGGCTA,-0.136
21,ATAATCGC,0.189
22,GTGTTATA,0.123
23,CCAAAAAG,0.248
24,ACCACGGG,0.0669
25,AATTTTAC,0.0624

row,Sequence,PBM E-score
1,ACCTTTTA,0.411
2,CCGCCGCG,0.00453
3,ATCCTTTG,0.161
4,GATCGGCC,-0.175
5,CACTTTTC,0.092
6,GTATGCAC,-0.0756
7,AAAATCCT,0.0229
8,ATGCCCGG,-0.107
9,CCTGGATA,-0.083
10,ACCAGCTC,-0.0583
11,CGTCAACG,-0.197
12,TAAGTTAA,0.00685
13,ACATCGCG,-0.0245
14,GATTGTGC,-0.0973
15,TCGGTAAA,-0.0188
16,CCTGCCGC,-0.196
17,AGATACTC,-0.0853
18,ACTGACGA,-0.0465
19,AGTCTCCG,0.0457
20,GCTGCCAC,-0.188
21,AAGGACAT,0.131
22,GAAAAATA,0.286
